# In all, about 52,000 compounds went through this assay and about 1,700 (3.3%) were called active. Rule as the data show it: active = survival mostly below about 52% (no sharp cut-off); inactive = mostly above about 56%. The list shows a part of the results.
# Tested on: Wild type
# Test: growth inhibition of S. aureus wild type versus tarO mutant, primary screen, teichoic acid synthesis inhibitors, RN4220, OD600 (AID 463173)
# Conditions: S. aureus RN4220 wild type/DeltatarO growth, OD600, 18 h, hits give low values, screened at 18.75 µg/mL (by protocol)
row,SMILES,survival
1,Cc1c(Cl)cccc1NC(=O)CCS(=O)(=O)c1ccc2c(c1)CC(C)N2C(=O)C1CC1 (configuration not stated),inactive: 85%
2,COc1ccc(CN(C)c2ccc(-c3nc(-c4ccc(OC)c(OC)c4)no3)cc2[N+](=O)[O-])cc1,inactive: 86%
3,CCOc1ccc2nc(Cl)c(C3CC(c4ccc(C)cc4)=NN3C(=O)CCC(=O)O)cc2c1 (configuration not stated),inactive: 79%
4,Cc1cccc(N2CCN(C(=O)C3CCN(C(=O)c4cc5sccc5n4C)CC3)CC2C)c1 (configuration not stated),inactive: 69%
5,COc1cccc(-c2nnc(SCC(=O)N(C)C3CCCCC3)o2)c1,inactive: 79%
6,CCOc1ccccc1CNCc1c(C(=O)O)c(C)n(Cc2ccc(C)cc2)c1C,inactive: 90%
7,CN1CCc2nc3sc(C(=O)c4ccc(F)cc4)c(N)c3cc2C1,inactive: 75%
8,COc1cn(CC(=O)Nc2cc(C)cc(C)c2)c(CN2CCCCC2)cc1=O,inactive: 65%
9,CCC(C)S(=O)(=O)c1oc(-c2cccs2)nc1S(=O)(=O)c1ccccc1 (configuration not stated),inactive: 16%
10,CCOc1ccc(CCNC(=O)Cn2c(-c3cccs3)cc3ccccc32)cc1,inactive: 58%
11,CCOc1ccc(NC(=O)CN(Cc2ccccc2)S(=O)(=O)c2ccc3nc(C)sc3c2)cc1,inactive: 79%
12,CCCNC(=O)c1ccc(SC)cc1OC,inactive: 113%
13,CN1C(=O)c2cccc3c(S(=O)(=O)Nc4cccc(C(=O)O)c4)ccc1c23,inactive: 77%
14,Cc1ccc2c(c1)c1c(c(=O)n(Cc3ccccc3)c(=O)n1Cc1ccccc1F)n2C,inactive: 73%
15,CN(c1ccc(F)cc1)S(=O)(=O)N1CCCC(C(=O)NCc2ccccc2Cl)C1 (configuration not stated),inactive: 92%
16,CCN(CC)S(=O)(=O)c1ccc(OC)c(NC(=O)c2sc3ccccc3c2Cl)c1,inactive: 92%
17,CCOc1ccc(N2CC(NC(=O)c3ccc(Cl)cc3)CC2=O)cc1 (configuration not stated),inactive: 45%
18,Cc1cccc(NC(=O)c2oc3ccccc3c2NC(=O)c2cc(=O)c3ccccc3o2)c1,inactive: 82%
19,CCOC(=O)N1CCc2c(sc3c2c(=O)n(Cc2ccccc2)c(=O)n3CC(=O)Nc2ccc(F)cc2)C1,inactive: 87%
20,CNC(=O)CN1C(=O)COc2ccc(S(=O)(=O)N3CCCCCC3)cc21,inactive: 69%
21,COc1ccc(CNC(=O)c2cnn3c2NC(c2ccc(C)cc2)CC3C(F)F)cc1OC (configuration not stated),inactive: 126%
22,COc1ccc(CN2C(=O)C(NC(=O)c3cccc(C)c3)(C(F)(F)F)N=C2c2ccccc2)cc1 (configuration not stated),inactive: 77%

row,SMILES,survival
1,CCOc1ccc(NC(=O)CSc2cn(CCNC(=O)c3ccccc3F)c3ccccc23)cc1,inactive: 80%
2,Cn1c2ccccc2c2cnn(CC(=O)NCCCN3CCCCC3)c(=O)c21,inactive: 79%
3,CCc1ccccc1NC(=O)CSc1nncn2c1cc1oc(C)cc12,inactive: 79%
4,Fc1ccc(C(c2nnc(-c3ccccc3)o2)N2CCN(c3cccc(Cl)c3)CC2)cc1 (configuration not stated),inactive: 81%
5,CC(=O)N1c2ccccc2Sc2ccccc21,inactive: 102%
6,CC(=O)c1cccc(NC(=O)CSc2nnc3ccc(-c4ccc(Br)cc4)nn23)c1,inactive: 71%
7,O=C(NCCS(=O)(=O)N1CCN(c2ccc(F)cc2)CC1)C(c1ccccc1)c1ccccc1,inactive: 126%
8,CCOC(=O)C(CC)n1nnc2sc(-c3ccccc3)cc2c1=O (configuration not stated),inactive: 81%
9,CC(C)Oc1ccccc1-c1nc(SCC(=O)c2ccc(F)cc2)n[nH]1,active: -5%
10,Cc1ccc2oc(=O)c3cnn(CC(=O)N4CCN(c5ccc(F)cc5)CC4)c3c2c1,inactive: 83%
11,Cc1ccc(Nc2c(-c3c[nH]c4ccccc34)nc3ccccn23)cc1,inactive: 76%
12,Cc1ccc(-n2c(=O)c3sc4ccccc4c3n(CC(=O)NC3CCCC3)c2=O)cc1C,inactive: 63%
13,Cc1ccc(NC(=O)Cn2c(=O)n(Cc3ccccc3)c(=O)c3sc4ccccc4c32)cc1,inactive: 93%
14,COc1ccc(OC)c(CCNC(=O)c2cc3c(s2)-c2c(C)cccc2OC3)c1,inactive: 101%
15,Cc1ccc(CNC(=O)CSc2nc3c(sc4ccccc43)c(=O)n2CCCOC(C)C)cc1,inactive: 124%
16,CCN(CC)S(=O)(=O)c1ccc(NC(=O)CN(c2ccccc2)S(=O)(=O)N(C)C)cc1,inactive: 76%
17,O=C(CN1C(=O)C2(SCC(=O)N2c2cccc(Cl)c2)c2ccccc21)NCCc1ccccc1 (configuration not stated),inactive: 126%
18,CCOc1ccc(NC(=O)c2c(Nc3ccccc3C)sc(C(=O)c3ccccc3)c2N)cc1,inactive: 83%
19,CC(=O)Nc1ccc(Cc2ccncc2)cc1,inactive: 102%
20,CCOc1ccc(NC(=O)C(Cc2ccccc2)NS(=O)(=O)c2ccc3c(c2)oc(=O)n3C)cc1 (configuration not stated),inactive: 106%
21,Cc1c(Cl)cccc1-c1ccc(CNCCSc2nnnn2-c2ccccc2)o1,inactive: 53%
22,CCS(=O)(=O)c1ncc(N(Cc2ccccc2)Cc2ccco2)c(C(=O)Nc2cccc(Cl)c2C)n1,inactive: 84%

row,SMILES,survival
1,COc1ccccc1C(=O)Nc1ccc2nc(SCC(=O)N(C)c3ccccc3)sc2c1,inactive: 84%
2,CCOc1ccc(CNC(=O)c2ccc3c(c2)c(C)c(C)n3Cc2ccccc2)cc1OC,inactive: 72%
3,Cc1ccc(S(=O)(=O)NCC2CCCO2)cc1 (configuration not stated),inactive: 116%
4,COC(=O)c1ccc(NC(=O)CSc2nc3cc4c(cc3cc2C#N)OCCO4)cc1,inactive: 102%
5,COc1ccc(CCNC(=O)c2ccc3c(c2)N(Cc2ccccc2)C(=O)c2ccccc2S3=O)cc1OC (configuration not stated),inactive: 103%
6,COC(=O)c1ccc(Cl)cc1NC(=O)Nc1nnc(N2CCCC2)s1,inactive: 84%
7,Cc1ccc(C)c(Cn2c3ccccc3c3cnn(CC(=O)NC(C)CCc4ccccc4)c(=O)c32)c1 (configuration not stated),inactive: 80%
8,Cc1ccc(-n2ncc(C(=O)N3CCN(c4cc(Cl)ccc4C)CC3)c2C2CCN(C(=O)OC(C)(C)C)CC2)cc1,inactive: 143%
9,O=C(Nn1c(Cc2ccccc2)nc2ccccc2c1=O)c1ccco1,inactive: 107%
10,C/C(COc1ccccc1OCC(=O)O)=N\NC(=O)c1ccncc1,inactive: 103%
11,COC(=O)CSc1ncc2c(n1)-c1ccccc1N(Cc1ccc(Cl)cc1)S2(=O)=O,inactive: 73%
12,COc1ccc(CCn2c3c(c(=O)[nH]c2=O)C(NC(=O)c2ccc(Cl)cc2)(C(F)(F)F)C(=O)N3)cc1OC (configuration not stated),inactive: 78%
13,COc1ccc(CNc2ncnc3c2nc2n3CCCC2)cc1,inactive: 129%
14,Cn1ncc2c(Nc3cc(C(F)(F)F)ccc3Cl)ncnc21,inactive: 77%
15,COc1cccc(NC(=O)CN2C(=O)c3cccc4cccc2c34)c1,inactive: 98%
16,Cc1cccc(CNC(=O)Cn2c(-c3cccs3)cc3ccccc32)c1,inactive: 135%
17,COc1ccc(NC(=O)c2c(C)oc3ccc(O)c(CN4CCC(C)CC4)c23)cc1Cl,inactive: 62%
18,Cc1cccc(OCC(=O)Nc2ccccc2C(=O)OCc2cc(=O)n3ccsc3n2)c1,inactive: 73%
19,CCN(c1cccc(C)c1)S(=O)(=O)c1cc(Br)cc2c1N(C(C)=O)C(C)C2 (configuration not stated),inactive: 75%
20,CC(NC(=O)c1ccc2c(c1)N(Cc1ccc(Cl)cc1)C(=O)CS2)c1ccccc1 (configuration not stated),inactive: 73%
21,CCCN(c1c(C)n(C)n(-c2ccccc2)c1=O)S(=O)(=O)c1ccc(C)cc1,inactive: 89%
22,CCc1ccc(-n2nnc(-c3nc(-c4cccs4)no3)c2N)cc1,inactive: 93%

row,SMILES,survival
1,CC1CCN(C(=O)CSc2n[nH]c(-c3ccc(F)cc3)n2)CC1,inactive: 76%
2,COc1ccc2c(c1)c1c(c(=O)n(-c3ccccc3C)c(=O)n1Cc1cccc(C(F)(F)F)c1)n2C,inactive: 78%
3,CC(C)OC(=O)c1ccc(Cn2nnc3sc4c(c3c2=O)CCCC4)cc1,inactive: 17%
4,CC1=CS(=O)(=O)CC1,inactive: 93%
5,Nc1nonc1/C(=N/OC(=O)c1ccccc1)N1CCOCC1,inactive: 119%
6,CC(C)(C)C(=O)Nc1ccc(-c2nc3ccc(NC(=O)C(C)(C)C)cc3[nH]2)cc1,inactive: 148%
7,CCc1nc2ccc(C(=O)N3CCN(c4cc(Cl)ccc4C)CC3)cc2nc1CC,inactive: 71%
8,CC(C)OC(=O)Cn1nnc(-c2ccccc2)n1,inactive: 109%
9,Cc1ccc(S(=O)(=O)NCC2CCC(C(=O)NCCc3ccccc3)CC2)cc1 (configuration not stated),inactive: 72%
10,CCC(=O)N1CCc2cc(CNS(=O)(=O)c3cc(OC)ccc3OC)ccc21,inactive: 131%
11,CC(=O)Nc1ccc(S(=O)(=O)NC2(C(F)(F)F)C(=O)Nc3c2c(=O)[nH]c(=O)n3-c2cccc(Cl)c2)cc1 (configuration not stated),inactive: 67%
12,CCOC(=O)c1cnc2cc(C(F)(F)F)ccc2c1Nc1ccc(F)cc1F,active: -12%
13,Cc1cccc(-c2nc(CN3CCCC(C(=O)N4CCN(c5cc(Cl)ccc5C)CC4)C3)c(C)o2)c1 (configuration not stated),inactive: 75%
14,O=C(c1ccc(F)cc1)c1cn(Cc2ccccc2F)c2cc3c(cc2c1=O)OCCO3,inactive: 70%
15,Oc1ccc(Cl)cc1C1=Nc2ccccc2N=C(c2ccccc2)C1,inactive: 140%
16,Cc1ccc(C(=O)C(C)OC(=O)C2CC(=O)N(C3CCCCC3)C2)cc1 (configuration not stated),inactive: 108%
17,Cc1ccc(CSc2nc3cccnc3n2Cc2ccc(C(=O)NCc3ccco3)cc2)cc1,inactive: 84%
18,Cc1ccc(-c2nc3c(c(SCc4ccc(Br)cc4)n2)Cc2c(CO)cnc(C)c2O3)cc1,inactive: 81%
19,CSc1cccc(NC(=O)c2cnn(-c3ccc(F)cc3)c2-n2cccc2)c1,inactive: 91%
20,O=C(Nc1ccccc1)NC1CC2CCC(C1)N2Cc1nnnn1Cc1ccc2c(c1)OCO2 (configuration not stated),inactive: 79%
21,O=C(CSc1nc2c([nH]c3ccccc32)c(=O)n1-c1ccc(Cl)cc1)N1CCc2ccccc21,inactive: 93%
